Laboratory results taken from PubChem BioAssay AID1918939 (Molecular Pharmacology Branch, DTP, NCI, 2023).
Certain results were filed several times, with different values. The other results are left out here. An entry can have further records. Values that stand side by side are repeats (runs, samples, wells, individuals or studies). Brackets with × count equal records among those shown. Dates in brackets are months of testing. Blank lines part the entries; values can stand above or below the compound they belong to.

Tested on: 653999-131-R-J2-PDC complex spheroid viability
Experiment: Anticancer human tumor 653999-131-R-J2-PDC patient-derived lung adenocarcinoma cell line growth inhibition
Conditions: for viability, T/C: stronger effect = lower value
Description: Multicellular complex tumor spheroid response to LSD1 Inhibitor Iadademstat in combination with a variety of drugs and investigational agents in selected tumor cell lines
The current study was undertaken to assess response to LSD1 inhibitors in combination with standard-of-care drugs and investigational agents in solid tumor complex spheroid models as well as in the K-562 leukemia. Complex spheroids include a stromal component modeled by human endothelial cells (HUVEC) and fibroblasts modeled by human mesenchymal stem cells (MSCs). The concentration ranges selected for each drug and investigational agent were based upon clinically achievable concentrations if the clinical Cmax of the agent was known.
Compounds. The drugs and investigational agents used in this study are listed on Table 1. All of the agents used, including staurosporine (NSC755774) and gemcitabine (NSC613327), were obtained from the Developmental Therapeutics Program, NCI. FDA-approved anticancer drugs are available from the NCI at http://dtp.nci.nih.gov/branches/dscb/oncology_drugset_explanation.html. Drugs and investigational agents were >95% pure by proton nuclear magnetic resonance (NMR) and liquid chromatography/mass spectrometry (LC/MS). Stock solutions were prepared at 400x in DMSO, stored at -70 degrees C, and diluted in fresh medium prior to their use. The final concentration of DMSO in cell culture wells never exceeded 0.25% (v/v). The FDA-approved anticancer drug set is available from the Developmental Therapeutics Program at https://dtp.cancer.gov/organization/dscb/obtaining/available_plates.htm. All drugs and investigational agents were tested over a range starting from a high concentration at or near the clinical Cmax and decreasing in half-log increments. If the clinical Cmax for an agent had not been determined, the highest concentration tested was 10 microM.
Cell Lines. The patient-derived cancer cell (PDC) lines: 292921-168-R-J2-PDC, K24384-001-R-PDC, and 521955-158-R2-J5-PDC pancreatic carcinomas, 556581-035-R-J1 ovarian carcinoma, 324938-238-R-J1-PDC, 855422-203-R-J1-PDC and 883617-216-R-J1-PDC urothelial bladder carcinomas, 743489-274-T-PDC renal cell carcinoma, 138582-R-J1 Merkel cell tumor, K60290-347-R-J1 and K57222-313-R-J1-PDC glioblastomas, 653999-131-R-J2-PDC, LG0703-F948-PDC, and 349418-098-R-PDC non-small cell lung carcinomas, 885512-296-R-J2-PDC, 171881-019-R-J1-PDC breast carcinomas and 186277-243-T-J2-PDC and 233499-124-R-J2-PDC colon carcinomas were obtained from the NCI Patient-Derived Models Repository (PDMR, https://pdmr.cancer.gov). The established cell lines NCI/ADR-RES (RRID:CVCL_14520 and OVCAR-5 (RRID:CVCL_1628) ovarian carcinomas, 786-O (RRID:CVCL_1051) and A498 (RRID:CVCL_A498) renal cell carcinoma, NCI-H211 (ATCC, cat. CRL-5824; RRID:CVCL_1529), NCI-H196 (ATCC, cat. CRL-5823, RRID:CVCL_1509), SW 1271 (ATCC, cat. CRL-2177, RRID:CVCL_1716) and NCI-H1876 (ATCC, cat. CRL-5902, RRID:CVCL_1503) small cell lung carcinomas, MDA-MB-231 (RRID:CVCL_0062) and MDA-MB-468 (RRID:CVCL_0419)breast carcinomas (10-12). Pooled donor human umbilical vein endothelial cells (HUVEC, Lonza, cat. CC-2519) and human mesenchymal stem cells (hMSC, Lonza, cat. PT-2501) were purchased from Lonza (Walkersville, MD).
Cell Culture. All cells were maintained in an incubator at 37 degrees C and 5% CO2 with 95% humidity. The PDC lines were cultured according to standard operating procedures established by the NCI PDMR (https://pdmr.cancer.gov). Briefly all PDCs were thawed and cultured in Matrigel-coated flasks prepared with a working solution of 1X Ham's F-12 nutrient mix, without supplementation (Invitrogen, Waltham, MA, cat. 11765054), 100 U/mL penicillin-streptomycin (Invitrogen, cat. 15140122), and 2.5% Matrigel (Corning Inc., Corning, NY, cat. 354248) for the first three passages. […]
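Further: spheroids exposed to agents for seven days before readout.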

IC50 (compound alone): 7.27 nM [2022-01] and > 300 nM [2022-02]
SMILES: Nc1ccn(C2OC(CO)C(O)C2(F)F)c(=O)n1 (centres undefined)

SMILES: NC1CC1c1ccc(-c2cccc(O)c2)cc1 (centres undefined)
viability, T/C (compound alone 0.316 µM): 83.5, 100, 87.7, 82.5, 94.4, 82.7, 85.2, 79.4, 87, 83.9, 92.3, 76.7, 90.6, 77 (2×), 79.5, 104, 91.4, 89.4, 82.8, 81.9 (2×), 95.4, 78.6, 82.4% | viability, T/C (compound alone 1 µM): 95.8, 88.8, 85.8, 75.3, 100, 82.8, 73.9, 88.7, 66.5, 75.6, 83.3, 88, 92.1 (2×), 86.5, 82.2, 88.5, 96.1, 88.3 (2×), 96.2, 80.7, 86, 77.3, 75% | viability, T/C (compound alone 3.16 µM): 93.8, 93.3, 98.2, 81.6, 87, 86.6, 92.8 (2×), 86.2, 81, 79.5, 86.5, 83.3, 87.6, 71.4, 81.2, 88.6, 86.9, 105, 73.7, 72.8, 99.1, 76.6, 67, 73.2% | viability, T/C (compound alone 10 µM): 88.1, 91.9, 79.1, 87, 86.6, 88.4, 87.4, 78.7, 82.7, 77.4, 80.5, 74.8, 71, 79.3, 83.9, 78.6, 92.6, 94.6, 95.7, 81.4, 69.2, 96.9, 79.2, 74, 69%

SMILES: O=C(C=Cc1cccc(S(=O)(=O)Nc2ccccc2)c1)NO
viability, T/C (compound alone 3 µM): 2.26% [2022-01] and 95.6% [2022-02]

SMILES: NC1CCC(NC2CC2c2ccccc2)CC1 (centres undefined)
viability, T/C (compound alone 0.1 µM): 89.5, 92.1, 86.1, 87.1, 106, 101 (2×), 91, 83.7, 88.9, 79.8, 82.7, 80.4, 92.8, 84, 85.4, 84.6 (2×), 84.2, 97.1, 90.3, 104, 81.2, 96, 90.2% | viability, T/C (compound alone 3.16 µM): 85.8, 102, 92.9, 96.3, 81.3, 106, 66.8, 90.2, 95.9, 83.9, 93, 88.3, 92.7, 86.1, 111, 81.8, 78.9, 91, 96.5, 80.6, 96.8, 71.3, 107, 104, 77.8% | viability, T/C (compound alone 10 µM): 101 (2×), 74.5, 99.4, 81.1, 109 (2×), 73.8, 82.5, 92.3, 80.7, 85.3, 75.3, 94.6, 71.8, 80.4, 95.9, 80.6, 125, 72.5, 110, 106, 83.7%
